Source: the RNAGym collection of RNA variant scans (doi:10.7554/elife.90254)
The source gives no read counts; variants with many changes may rest on few reads.

B1: OR4K15 (parent)
chain: GUUAACGGUCAUAGGCCAUGGAAACUAGGAGCACCAUUUCGCUGCCAGUGAAGAAAUGAACAAAGAAAAUCUGGGCCAGGCAGGCAUCAAAAGAAAUAGUCUUGCGCUCAACCAGAAAGUCUGUAAUCAUUUUAAGGGUA

Variants of: B1
Assay: self-cleavage, relative activity (ratio to wild type); higher = more cleavage; in vitro, sequencing; the parent is a self-cleaving ribozyme

Variant	self-cleavage
GUUAACGGUCAUAGGCCAUGGAAGCUAGGAGCGCCAUUUCGCUGCCAGUGAAGAAAUGAUCAGAGAAAAUCUGGGCCAGGCAGGCAACAAAAGAAAUAGUCUUGCGCUCAACCAGAAAGUCUGUAAUCAUUUUAAGGGUA [A24G A33G A60U A63G U87A]	0.65
GUUAACGGUCAUAGGCCAUGGAAGCUAGGAGCACCAUUUCGCUGCCAGUGAGGAAAUGAACAAAGAAAAUCUGGACCAGGCGGGCAUCAAAAGAAAUAGUCUUGCGCUCAACCAGAAAGUCUGUAAUCAUUUUAAGGGUA [A24G A52G G75A A82G]	0.18
GUUAACGGUCAUAGGCCAUGGAAGCUAGGAGCACCAUUUCGCUGCCAGUGUAGAAAUGAACAAAGAAAAUCUGGGCCAGGCAGGCACCAAAAGAAAUAGUCUUGCGCUCAACCAGAAAGUCUGUAAUCAUUUUAAGGGUA [A24G A51U U87C]	1.49
GUUAACGGUCAUAGGCCAUGGAAGCUAGGAGCACCAUUUCGCUGCCGGUGAAGAAAUGAACAAAGAAAAUCUGGGCCAGGCAGGCAUCAAAAGAAAUAGUCAUGCGCUCAACCAGAAAGUCUGUAAUCAUUUUAAGGGUA [A24G A47G U102A]	0.53
GUUAACGGUCAUAGGCCAUGGAAGCUAGGAGCACCAUUUCGCUGCCAGUGAAGGAAUGAACAAAGAAAAUCUGGGCCAGGCGGGCAUCAAAAGAAAUAGUCUUGCGCUCAACCAGAAAGUCUGUAAUCAUUUUAAGGGUA [A24G A54G A82G]	0.73
GUUAACGGUCAUAGGCCAUGGAAGCUAGGAGCACCAUUUCGCUGCCAGUGAUGAAAUGAACAAAGAAAAUCAGGGCCAGGCAGGCAUCAAAAGAAAUAGUCUUGCGCUCAACCAGAAAGUCUGUAAUCAUUUUAAGGGUA [A24G A52U U72A]	0.25
GUUAACGGUCAUAGGCCAUGGAAGCUAGGAGCACCAUUUCGCUGCCAGUGAAGGAAUGAACAAGGAAAAUCUGGGCCAGGCAGGCAUCAAAAGAAGUAGUCUUGCGCUCAACCAGAAAGUCUGUAAUCAUUUUAAGGGUA [A24G A54G A64G A96G]	1.68
GUUAACGGUCAUAGGCCAUGGAAGCUAGGAGCACCAUUUCGCUGCCGGUGAAGGAGUGAACAAAGAAAAUCUGAGCCAGGCAGGCAUCAAAAGAAAUAGUCUUGCGCUCAACCAGAAAGUCAGUAAUCAUUUUAAGGGUA [A24G A47G A54G A56G G74A U122A]	0.13
GUUAACGGUCAUAGGCCAUGGAAGCUAGGAGCACCAUUUCGCUGCCAGUGAGGAGAUGAACAAAGAAAACCUGGGCCAGGCAGGCGUCAAAAGAAAUAGUCUUGCGCUCAACCAGAAAGCCUGUAAUCAUUUUAAGGGUA [A24G A52G A55G U70C A86G U120C]	0.27
GUUAACGGUCAUAGGCCAUGGAAGCUAGGAGCACCAUUUCGCUGCCAGUGGAGAAGUGGACGAAGAAAAUCUGGGCCAGGCAGGCAUCAAAAGAAAUAGUCUUGCUCUCAACCAGAAAGUCUGUAAUCAUUUUAAGGGAA [A24G A51G A56G A59G A62G G106U U139A]	0.02
GUUAACGGUCAUAGGCCAUGGAAGCUAGGAGCACCAUUUCGCUGCCUGUGAUGAAAUGAACAAAGAAAAUCUGGGCCAGGCAGGCAUCAAAAGAAAUAGUCUUGCGCUCAACCAGAAAGUCUGUAAUCAUUUUAAGGGUA [A24G A47U A52U]	0.09
GUUAACGGUCAUAGGCCAUGGAAGCUAGGAGCACCAUUUCGCUGCCAGUGAGGAAAUGAACAAAGAAAAUCUGGGCCAGGCAGGCAUCAAAGGAAAUAGUCUUGCGCUCAACCAGAAAGUCUGUAAUCAUUUUAAGGGUA [A24G A52G A92G]	1.27
GUUAACGGUCAUAGGCCAUGGAAGCUAGGAGCACCAUUUCGCUGCCAGUGAUGAAAUGAACAAAGAAAAUCUGGGCCAGGCAGGCAUCAAAAGAAAUAGCCUUGCGCUCAACCAGAAAGUCUGUAAUCAUUUUAGGGGUA [A24G A52U U100C A135G]	1.96
GUUAACGGUCAUAGGCCAUGGAAGCUAGGGGCACCAUUUCGCUGCCAGUGAAGAAAUGAACAAAGAAAAUCUGGGCCAGGCAGGCAUCAAAAGAAAUAGUCCUGCGCUCAACCUGAAAGUCUGUAAUCAUUUUAAGGGUA [A24G A30G U102C A114U]	0.09
GUUAACGGUCAUAGGCCAUGGAAGCUAGGGGCACCAUUUCGCUGCCAGUGAAGAAAUGAACAAAGAAAUUCUGGGCCAGGCAGGCAUCAAAAGGAAUAGUCUUGCGCUCGACCAGAAAGUCUGUAAUCAUUUUAAGGGUA [A24G A30G A69U A94G A110G]	0.06
GUUAACGGUCAUAGGCCAUGGAAGCUAGGAGCACCAUUUCGCUGCCAGUGUAGAAAUGAACAAAGAAAAUCUGGGCCAGGCAGGCAUCGAAAGAAAUAGUCUUGCGCUCAGCCAGAAAGUCUGUAAUCAUUUUAAGGGUA [A24G A51U A89G A111G]	0.02
GUUAACGGUCAUAGGCCAUGGAAGCUAGGAGCACCAUUUCGCUGCCUGUGAAGAAAUGAACAAAGAAAAUCUGGGCCAGGCAGGCAUCAAAAGAAAUAGUCCUGCGCUCAACCAGAAAGUCUGUAAUCAUUUUAAGGGUA [A24G A47U U102C]	1.75
GUUAACGGUCAUAGGCCAUGGAAGCUAGGGGCACCGUUUCGCUGCCAGUGAAGAAGUGAACAAGGAGAAUCUGGGCCAGGCAGGCAUCAGAAGAAAUAGUCUUGCACCCAACCAGAAAGUCUGUAAUCAUUUUAAGGGUA [A24G A30G A36G A56G A64G A67G A90G G106A U108C]	0.02
GUUAACGGUCAUAGGCCAUGGAAGCUCGGAGCACCAUCUCGCUGCCGGUGAAGAAAUGAACGAAGAAAAUCUGGGCCAGGCAGGCAUCAAAAGAAAUAGUCUUGCGCUCAACCAGAAAGUCUGUAAUCAUUUUAAGGGUA [A24G A27C U38C A47G A62G]	1.34
GUUAACGGUCAUAGGCCAUGGAAGCUAGGAGCACCAUUUCGCUGCCAGUGGAGAAAUGAACAAAGAAAAUCUGGGCCAGGCAGGCAUCAAAAGAAAUAGUCUUGCGCUCAACCGGAAAGUCUGUAAUCAUUUUAAGGGUA [A24G A51G A114G]	0.24
GUUAACGGUCAUAGGCCAUGGAAGCUAGGAGCACCAUUUCGCUGCCGGUGAAGAAAUGAACAAAGAAAAUCUGGGCCAGGCAGGCAUCAAAAGAAAUAGUCUCGCGCUCAACCAGAGAGCCUGUAAUCAUUUUAAGGGUA [A24G A47G U103C A117G U120C]	0.11

Variant	self-cleavage
GUUAACGGUCAUAGGCCAUGGAAGCUAGGAGCACCAUUUCGCUGCCAGUGACGAAAUGAACAAAGAAAAUCUGGGCCAGGCUGGCAUCAAAGGAAAUAGUCUUGCGCUCAACCAGAAAGUCUGUAAUCGUUUUAAGGGUA [A24G A52C A82U A92G A129G]	0.12
GUUAACGGUCAUAGGCCAUGGAAGCUAGGUGCACCAUUUCGCUGCCAGUGAAGAAAUGAACAAAGAAAAUCUGGGCCGGGCAGGCAUCAAAAGAGAUAGUCUUGCGCUCAACCAGAAAGUCUGUAAUCAUUUUAAGGGUA [A24G A30U A78G A95G]	0.3
GUUAACGGUCAUAGGCCAUGGAAGCUAGGAGCACCAUUUCGCUGCCAGUGGAGAAAUGAACAAAGAAAAUCUGGGCCAGGCAGGCAUCAAAAGAAAUAGUCUCGCGCUCAACCAGAAAGUCUGUACUCAUCUUAAGGGUA [A24G A51G U103C A126C U131C]	0.08
GUUAACGGUCAUAGGCCAUGGAAGCUAGGAGCACCAUUUCGCUGCCAGUGAGGAAAUGACCAAAGGAAGUCUGGGCCCGGCAGGCAUCAAAAGAAAUAGUCUUGCGCUCGACCAGAAAGCCUGUAAUCAUUUUAAGGGUA [A24G A52G A60C A66G A69G A78C A110G U120C]	0.13
GUUAACGGUCAUAGGCCAUGGAAGCUAGGAGCACCAUUUCGCUGCCAGUGAUGAAGUGAACAAAGAGAAUCUGGGCCAGGCAGGCACCAAAAGAAAUAGUCUUGCGCUCAACCAGAUAGUCUGUAAUCAUUUUAAGGGUA [A24G A52U A56G A67G U87C A117U]	0
GUUAACGGUCAUAGGCCAUGGAAGCUAGGAGCACCAUUUCGCUGCCAGUGAGGAAAUGAACAAAGAAAAUCUGGGCCAGGCAGGCAUCAAAAGAGAUAGUCUUGCGCUCAACCAGAAAGUCAGUAAUCAUUUUAAGGGUA [A24G A52G A95G U122A]	1.07
GUUAACGGUCAUAGGCCAUGGAAGCUAGGAGCACCAUUUCGCUGCCGGUGAAGAAAUGAACGAAGAAAAUCCGGGCCAGGCAGGCAUCAAAAGAAAUAGUCUUGCGCUCAACCAGAAAGUCUGUAAUCAUUUUAAGGGUA [A24G A47G A62G U72C]	0.17
GUUAACGGUCAUAGGCCAUGGAAGCUAGGAGCACCAUUUCGCUGCCGGUGAAGAAAUGAACAAAGAAAAUCUGGGCCAGGCAGGCAUCAAAAGAAAUAGUCUUGCGCUCAACCAGAAAGUCUGUGAUCAUUUUAAGGGUA [A24G A47G A125G]	0.32
GUUAACGGUCAUAGGCCAUGGAAGCUAGGAGCACCAUUUCGCUGCCAGUGAUGAAACGAACAAAGAAAAUCUGGGCUAGGCAGGCAUCAAAAGAAAUAGUCUUGCGCCCAACCAGAAAGUCUGUAAUCAUUUUAAGGGUA [A24G A52U U57C C77U U108C]	0.01
GUUAACGGUCAUAGGCCAUGGAAGCUAGGAGCCCCAUUUCGCUGCCAGUGAAGAAAUGAACAAAGAAAAUCUGGGCCAGGCAGGCGUCAAAAGAAAUAGUCUUGCGCUCAACCAGAAAGUCAGUAAUCAUUUUAAGGGUA [A24G A33C A86G U122A]	1.5
GUUAACGGUCAUAGGCCAUGGAAGCUAGGAGCACCAUUUCGCUGCCAGUGAGGAUAUGAACAAAGAAAAUCUGGGCCAGGCUGGCAUCAAAAGAAAUAGUCUUGCGCUCAACCAGAAAGUCUGUAAUCAUUUUAAGGGUA [A24G A52G A55U A82U]	0.53
GUUAACGGUCAUAGGCCAUGGAAGCUAGGGGCACCGUUUCGCUGCCAGUGAAGAAAUGAACAAAGAAAAUCAGGGCCAGGCAGGCAUCAAAAGAAGUAGUCUUGCGCCCAACCAGGAAGUCUGUAAUCAUUUUAAGGGUA [A24G A30G A36G U72A A96G U108C A116G]	0.02
GUUAACGGUCAUAGGCCAUGGAAGCUAGGAGCUCCAUUUCGCUGCCAGUGAAGAAAUGAACAAAGAAAAUCUGGGCCAGGCAGGCAUCAAAAGAAAUAGUCUUGCGCUCAACCAGAAAGUCUGUACUCAUUUUAAGGGUA [A24G A33U A126C]	0.94
GUUAACGGUCAUAGGCCAUGGAAGCUAGGAGCACCAUUUCGCUGCCAGUGGAGAAAUGAACAAAGAAAAUCUGGGCCAGGCAGGCAUCAAAAGAAAUAGUCUUGCGCUCGACCUGGAAGUCUGUAAUCAUUUUAAGGGUA [A24G A51G A110G A114U A116G]	0.02
GUUAACGGUCAUAGGCCAUGGAAGCUAGGAGCACCAUUUCGCUGCCAGUGGAGAAAUGAACAAAAAAAAUCUGGGCCAGGCAGGCACCAAAAGAAAUAGUCUUGCGCUCAACCAGAAGGACUGUAAUCAUUUUAAGGGUA [A24G A51G G65A U87C A118G U120A]	0.48
GUUAACGGUCAUAGGCCAUGGAAGCUAGGAGCACCAUUUCGCUGCCAGUGGAGAAAUGAACAAAGAAAAUCUGGGCCAGGCAGGCAUCAAAGGAAAUAGUCUUGCGCUCAACCAGAAAGUCUGUAAUCAUUUUAAGGGUA [A24G A51G A92G]	1.03
GUUAACGGUCAUAGGCCAUGGAAGCUUGGAGCACCAUUUCGCUGCCAGUGAAGAAAUGAACAAAGAAAAUCUGGGCCAGGCAGGCAACAAAAGAAAUAGUCUAGCGCUCAACCAGAAAGUCUGUAAUCGUUUUAAGGGUA [A24G A27U U87A U103A A129G]	0.46
GUUAACGGUCAUAGGCCAUGGAAGCUAGGAGCACCAUUUCGCUGCCAGUGGAGAAAUGAACAAAGAAAAUCUGGGCCAGGCAGGCAUCAAAAGAAAUAGUCUUGCGCUCAACCAGAAAGUCUGUAAUCAAUUUAUGGGUA [A24G A51G U130A A135U]	1.36
GUUAACGGUCAUAGGCCAUGGAAGCUAGGGGCACCAUUGCGCUGCCAGUGAGGAAAUGAACAAAGAAAAUCUGGGCCAGGCAGGCAUCUAAAGAAAUAGUCCUGCGCUCAACCAGAUAGUCUGUAAUCAUUUUUAGGGUA [A24G A30G U39G A52G A89U U102C A117U A134U]	0.6
GUUAACGGUCAUAGGCCAUGGAAGCUAGGAGCACCCUUUCGCUGCCAGUGAAGAAAUGAACAAAGAAAAUCUGGGCCAGGCAGGCAUAAAAAGAGAUAGUCUUGCGCUCAACCAGAAAGUCUGUAAUCAUUUUAAGGGUA [A24G A36C C88A A95G]	1.31
